# Assay results as given in the antibiotic and cytotoxicity screens of Wong et al. (2023).
# The list shows a part of the results.
# What was measured:
# HSkMC = human skeletal muscle cells; experiment: cytotoxicity call (relative viability < 0.9); conditions: 10 µM
# HepG2 = experiment: cytotoxicity call (relative viability < 0.9); conditions: 10 µM
# S. aureus RN4220 = experiment: growth inhibition call (relative growth <= 0.2); conditions: 50 µM
Structure (SMILES),cytotoxicity call (HSkMC),cytotoxicity call (HepG2),growth inhibition call (S. aureus RN4220)
Cc1ccc(-c2cnc3c(c2)C(=O)N([C@H](C)CO)C[C@H](C)[C@H](CN(C)C(=O)Cc2cccnc2)O3)cc1,inactive,inactive,inactive
CN(C)C(=O)[C@H]1C[C@@H]2CCN(S(C)(=O)=O)C[C@H]2O1,inactive,inactive,inactive
C[C@@H]1CN([C@@H](C)CO)C(=O)Cc2cc(NC(=O)Nc3ccc(C(F)(F)F)cc3)ccc2O[C@H]1CN(C)C(=O)Nc1ccc2c(c1)OCO2,inactive,inactive,inactive
COCCOC(=O)N1C(=O)[C@@]2(c3cc(C#CC4(O)CCCCCC4)ccc31)[C@H](C(=O)N1CCCCCCC1)[C@H]1C(=O)O[C@H](c3ccccc3)[C@H](c3ccccc3)N1[C@@H]2c1ccc(OCCO)cc1,inactive,active,inactive
COCCOC(=O)N1C(=O)[C@@]2(c3cc(C#Cc4ccc(OC)cc4)ccc31)[C@H](c1ccc(OCCO)cc1)N1[C@H](c3ccccc3)[C@H](c3ccccc3)OC(=O)[C@H]1[C@@H]2C(N)=O,inactive,inactive,inactive
COc1ccccc1C#Cc1ccc2c(c1)O[C@@H](CN(C)Cc1cccnc1)[C@@H](C)CN([C@@H](C)CO)S2(=O)=O,inactive,active,inactive
COc1ccc(-c2ccc3c(c2)O[C@@H](CN(C)CC2CCOCC2)[C@H](C)CN([C@@H](C)CO)S3(=O)=O)cc1,inactive,inactive,inactive
O=C(CN1CCNCC1)NC1CCCCC1,inactive,inactive,inactive
C[C@H]1CN([C@@H](C)CO)C(=O)c2cccc(NC(=O)Nc3ccc(C(F)(F)F)cc3)c2O[C@@H]1CN(C)C(=O)Nc1ccc(F)cc1,inactive,inactive,inactive
O=C(C[C@@H]1CC[C@H]2[C@@H](COC[C@@H](O)CN2S(=O)(=O)c2ccc(Cl)cc2)O1)N1CCc2ccccc2C1,inactive,inactive,inactive
C[C@H](CO)N1C[C@H](C)[C@H](CN(C)C(=O)c2ccncc2)OCCCC[C@H](C)Oc2ccc(NC(=O)C3CCCCC3)cc2C1=O,inactive,inactive,inactive
